Source: PMC4336329 (PLoS ONE, 2015)
Screen size: about 310,000 compounds; about 2,200 (0.71%) showed an effect of 50% or more. The effect is printed as a negative number. The list shows a part of the results.

molecular target: human ether-à-go-go-related gene (hERG) potassium channel (human, UniProt Q12809); assay: primary screen, population patch clamp on CHO cells stably expressing hERG
Sequence (Q12809 whole entry, looked up): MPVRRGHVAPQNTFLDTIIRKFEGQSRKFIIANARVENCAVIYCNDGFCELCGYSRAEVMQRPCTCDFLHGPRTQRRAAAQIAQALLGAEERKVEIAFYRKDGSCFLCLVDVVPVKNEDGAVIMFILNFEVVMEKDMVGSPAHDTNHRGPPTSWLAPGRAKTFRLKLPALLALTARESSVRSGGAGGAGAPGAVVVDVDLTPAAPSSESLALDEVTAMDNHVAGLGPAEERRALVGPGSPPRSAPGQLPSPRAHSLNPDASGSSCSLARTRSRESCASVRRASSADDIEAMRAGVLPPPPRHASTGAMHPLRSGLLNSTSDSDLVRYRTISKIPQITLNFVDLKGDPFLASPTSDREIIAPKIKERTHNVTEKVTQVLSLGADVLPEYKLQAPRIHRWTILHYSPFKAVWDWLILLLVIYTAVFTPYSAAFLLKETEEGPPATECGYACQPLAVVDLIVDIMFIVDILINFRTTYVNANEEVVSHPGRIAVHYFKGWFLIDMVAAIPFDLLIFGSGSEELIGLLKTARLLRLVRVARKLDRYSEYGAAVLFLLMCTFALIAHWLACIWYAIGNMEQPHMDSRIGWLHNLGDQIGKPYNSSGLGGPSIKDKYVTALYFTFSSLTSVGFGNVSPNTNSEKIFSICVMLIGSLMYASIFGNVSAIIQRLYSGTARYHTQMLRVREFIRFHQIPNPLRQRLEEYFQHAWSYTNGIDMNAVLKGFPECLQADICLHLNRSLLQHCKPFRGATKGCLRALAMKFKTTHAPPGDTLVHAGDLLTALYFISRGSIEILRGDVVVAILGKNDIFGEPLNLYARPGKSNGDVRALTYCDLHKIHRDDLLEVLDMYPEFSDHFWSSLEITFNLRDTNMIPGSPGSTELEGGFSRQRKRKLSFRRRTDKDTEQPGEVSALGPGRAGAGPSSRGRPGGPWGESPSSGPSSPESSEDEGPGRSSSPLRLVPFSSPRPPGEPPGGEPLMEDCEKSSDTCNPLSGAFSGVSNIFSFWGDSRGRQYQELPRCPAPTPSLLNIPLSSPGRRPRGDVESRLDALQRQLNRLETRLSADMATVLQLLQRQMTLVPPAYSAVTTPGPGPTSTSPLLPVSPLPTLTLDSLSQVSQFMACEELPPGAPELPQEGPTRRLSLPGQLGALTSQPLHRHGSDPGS

SMILES | hERG current change (%, negative = inhibition) at 1uM [%]
COC(=O)[C@@H]1CCCN1Cc1c(C(=O)N2CCOCC2)nc2c(C)cccn12 | 11.8
Oc1ccc(NCc2cccc(OCc3ccc(F)cc3)c2)cc1 | 9.76
N#Cc1ccccc1CCN1C(=O)c2ccccc2C1=O | 23.8
C=CCC1(NC(C)c2ccccc2)CCCCC1 (centres unmarked) | 7.87
Cc1cc(Cl)ccc1OCC(=O)NCCCN1CCOCC1 | 6.41
CCNc1nc(NCC)nc(SCCOC(=O)Nc2ccccc2)n1 | -3.18
COc1ccc(NC(=O)CN(C)C(=O)c2cccc(S(=O)(=O)Nc3ccc(OC)cc3)c2)cc1 | -9.32
COc1ccccc1C(=O)Nc1ccc2c(c1)CN(Cc1cnc(C)s1)CC2 | 5.48
CC(C)S(=O)(=O)C1=NSC2=NC(=O)/C(=C\c3ccc(OC(=O)c4ccco4)cc3)C(=N)N21 | 15.5
O=C1CCCC2=C1C(c1cccs1)n1nc(SCc3ccc(C(=O)O)cc3)nc1N2 (centres unmarked) | 12.8
O=C(COC(=O)CCN=C1NS(=O)(=O)c2ccccc21)NNC(=O)c1ccccc1 | 7.22
CCN(CC(=O)Nc1c(F)cccc1F)C(=O)/C=C/c1ccc(S(=O)(=O)N2CCCCCC2)cc1 | 5.73
Cc1cc(C(=O)NN)n[nH]1 | 10.6
CCn1cc([N+](=O)[O-])c(C(=O)N2N=C(c3cccc4ccccc34)CC2c2ccccc2O)n1 (centres unmarked) | 7.85
O=C(CCCn1c(=S)[nH]c2ccccc2c1=O)NC1CCCC1 | 9.53
O=[N+]([O-])c1ccc(-n2nnnc2CN2CCCCC2)cc1 | 5.88
COCCCNC(=O)Cn1cc(C(=O)C2CC2)c2ccccc21 | -23.1
CCc1ccccc1NC(=O)NCc1cccnc1 | 9.55
CN(C)CCCOc1ccc2c(c1)Sc1ccccc1CC2=O.Cl | -53.3

SMILES | hERG current change (%, negative = inhibition) at 1uM [%]
COc1ccc(CCN=C(N)NS(=O)(=O)c2ccc(C)c(C)c2)cc1 | 5.94
O=C(Nc1cccc(Cl)c1Cl)C1CC(=O)N(c2ccc(Br)cc2)C1 (centres unmarked) | 13.2
N#C/C(=C\c1cccs1)C(=O)NCC1CCCO1 (centres unmarked) | 12.6
COCCCn1c(C(=O)NC2CCCCC2C)cc2c(=O)n3cccc(C)c3nc21 (centres unmarked) | 3.54
COc1ccc(C(=O)Nc2cccc(C(=O)O)c2)cc1S(=O)(=O)N1CCCC1 | 4.99
CN(c1ccc(O)cc1)c1nc(-c2cccs2)cs1 | 10.8
Cc1ccc(Cn2c(=N)n(CC(O)c3ccco3)c3ccccc32)cc1.Cl (centres unmarked) | -40.7
O=C(Nc1nc2ccccc2[nH]1)c1ccccc1OC(F)F | 13.5
COc1ccc(Nc2nc(N)nc(CN3CCN(c4ccccn4)CC3)n2)cc1 | -37.1
COC(=O)c1ccccc1NC(=O)CN(c1ccccc1)S(=O)(=O)N(C)C | 9.5
CC(OC(=O)c1ccc(=O)n(Cc2ccccc2)n1)C(=O)Nc1cccc(Cl)c1 (centres unmarked) | 1.51
CCC(CC)C1C(C#N)=C(N)Oc2cc(C)oc(=O)c21 (centres unmarked) | 5.65
CN(C)c1ccc(C(=O)NCC2CCCO2)cc1 (centres unmarked) | 8.38
CCOC(=O)N1CCc2c(sc(NC(C)=O)c2C(N)=O)C1 | 14.5
Cc1c(OC(C)C(=O)N[C@H](C(=O)O)c2ccccc2)ccc2c3c(c(=O)oc12)CCCC3 (some centres unmarked) | 9.47
COc1ccccc1/C=N/NC(=O)c1ccc(Cn2nc([N+](=O)[O-])cc2C)cc1 | 1.96
NC(=O)c1ccccc1N | 10.4
N=c1n(CCOc2ccccc2)c2ccccc2n1CCN1CCOCC1 | -10
CCc1cccc(C)c1NC(=S)N1CCCCC1c1cccnc1 (centres unmarked) | 9.32

SMILES | hERG current change (%, negative = inhibition) at 1uM [%]
Cc1cc(N/N=C/c2ccc(F)cc2)nc(NCc2ccccc2)n1 | -2.72
CC(C)[C@@H](C(=O)NCc1ccco1)N1C(=O)N2CCc3c([nH]c4ccccc34)[C@@]2(C)C1=O | 12.2
Cc1nc(CCN2C(=O)c3ccccc3C2=O)n[nH]1 | 0.67
CC(=O)c1cc(C(c2csc(C(C)=O)c2)c2csc(C(C)=O)c2)cs1 | -3.91
CC1=C(C(=O)OCc2ccccc2)C(c2ccc(Cl)cc2Cl)NC(=O)N1CCCC(=O)O (centres unmarked) | 6.77
COc1ccc(OCc2nnc(NC(=O)Nc3ccccc3F)s2)cc1 | 2.36
O=C(Nc1nnc(C2CC2)s1)C1COc2ccccc2O1 (centres unmarked) | 19.2
CCc1ccc(NC(=O)CSc2nnc(COc3ccc4c(c3)CCCC4)o2)cc1 | -9.93
CN1C(=O)C(=O)/C(=C(/O)c2ccc(Br)cc2)C1c1cccc([N+](=O)[O-])c1 (centres unmarked) | 13.5
COc1ccc(NP(=O)(Nc2ccc(OC)cc2)Oc2ccccc2)cc1 | 7.04
COc1ccccc1CNC(=O)[C@H](NC(=O)C1CCN(C(=O)[C@@H](N)CCSC)CC1)C(C)C | -0.151
CN(C)c1ccc(-c2nnn(Cc3ccccc3Br)n2)cc1 | 13.5
CCCC(C)c1nnc(NC(=O)C2CC(=O)N(CCc3ccc(F)cc3)C2)s1 (centres unmarked) | -9.9
CCCn1c(=O)c2ccccc2n2c(SCCNCCO)nnc12.O=C(O)C(=O)O | 14.5
Cc1ccc(NC(=O)CSc2nnc(-c3ccncc3)s2)cc1 | 9.27
CCc1ccc(N2C(=O)C3ON(c4ccccc4)C(c4ccco4)C3C2=O)cc1 (centres unmarked) | 6.8
CC(=O)C1C(=O)NC23CCCCC2C1c1ccccc1O3 (centres unmarked) | 7.91
Cc1ccc(/C=C/C(=O)N(Cc2cccs2)C2CCS(=O)(=O)C2)cc1 (centres unmarked) | 4.65
